# This is one part of the list. Most values come without repeats; read them as rough.
# Columns and labels:
# Test in all cases: cell count relative to DMSO control; melanoma cells; higher = more viable cells
# Conditions in all cases: library dose: standard library concentration; 72 h
# [1] = system: SkMel28
# [2] = system: SkMel2
# [3] = system: SkMel30
# [4] = system: SkMel5
# [5] = system: UACC257
# [6] = system: UACC62
# [7] = system: WM115
# [8] = system: WM1716
# [9] = system: WM1745
# [10] = system: WM3526
# 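Note: cells treated in 1,536-well plates, then fixed and DAPI-stained, with nuclei counted from automated high-throughput microscope images.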
compound,measurement,setting,value
"Cn1cnc2c(F)c(Nc3ccc(Br)cc3Cl)c(C(=O)NOCCO)cc21 [selumetinib] + CN(c1ncccc1CNc1nc(Nc2ccc3c(c2)CC(=O)N3)ncc1C(F)(F)F)S(C)(=O)=O [PF562271] (first compound 0.075 µM, partner dose 0.4 µM)",cell count,[1],35%
same,cell count,[2],25.7%
same,cell count,[3],57.3%
same,cell count,[4],58.6%
same,cell count,[5],85.2%
same,cell count,[6],42.5%
same,cell count,[7],58.9%
same,cell count,[8],64.3%
same,cell count,[9],63.1%
same,cell count,[10],49.8%
"COc1cc([C@@H]2c3cc4c(cc3[C@@H](O[C@@H]3O[C@@H]5CO[C@@H](C)O[C@H]5[C@H](O)[C@H]3O)[C@H]3COC(=O)[C@H]23)OCO4)cc(OC)c1O [etoposide] + O=C(O)[C@@H]1[O][Sb](=[O])([O][Sb]2(=[O])[O][C@H]([C@H](O)CO)[C@H](O)[C@H](C(=O)O)[O]2)[O][C@H]([C@H](O)CO)[C@@H]1O [stibogluconate] (first compound 0.1 µM, partner dose 10 µM)",cell count,[1],81%
same,cell count,[2],58.4%
same,cell count,[3],91%
same,cell count,[4],73.5%
same,cell count,[5],79.7%
same,cell count,[6],68.8%
same,cell count,[7],94.8%
same,cell count,[8],66.8%
same,cell count,[9],85.2%
same,cell count,[10],94.1%
"COc1cc([C@@H]2c3cc4c(cc3[C@@H](O[C@@H]3O[C@@H]5CO[C@@H](C)O[C@H]5[C@H](O)[C@H]3O)[C@H]3COC(=O)[C@H]23)OCO4)cc(OC)c1O [etoposide] + Cc1cn(-c2cc(NC(=O)c3ccc(C)c(Nc4nccc(-c5cccnc5)n4)c3)cc(C(F)(F)F)c2)cn1 [nilotinib] (first compound 0.1 µM, partner dose 1 µM)",cell count,[1],68.5%
same,cell count,[2],66.2%
same,cell count,[3],78.4%
same,cell count,[4],78.8%
same,cell count,[5],104%
same,cell count,[6],56.6%
same,cell count,[7],91.7%
same,cell count,[8],75.8%
same,cell count,[9],68.1%
same,cell count,[10],86.7%
"COc1cc([C@@H]2c3cc4c(cc3[C@@H](O[C@@H]3O[C@@H]5CO[C@@H](C)O[C@H]5[C@H](O)[C@H]3O)[C@H]3COC(=O)[C@H]23)OCO4)cc(OC)c1O [etoposide] + Cn1c(Nc2ccc(C(F)(F)F)cc2)nc2cc(Oc3ccnc(-c4ncc(C(F)(F)F)[nH]4)c3)ccc21 [CHIR265] (first compound 0.1 µM, partner dose 0.4 µM)",cell count,[1],35.2%
same,cell count,[2],37.1%
same,cell count,[3],55%
same,cell count,[4],39.9%
same,cell count,[5],74.9%
same,cell count,[6],50.5%
same,cell count,[7],34.1%
same,cell count,[8],59.1%
same,cell count,[9],46.9%
same,cell count,[10],47.7%
"Cn1cnc2c(F)c(Nc3ccc(Br)cc3Cl)c(C(=O)NOCCO)cc21 [selumetinib] + O=C(Nc1cccc(Cl)c1)Nc1ncc(CCNc2ncnc3ccsc23)s1 [SNS314] (first compound 0.075 µM, partner dose 0.004 µM)",cell count,[1],55.8%
same,cell count,[2],53.2%
same,cell count,[3],61.1%
same,cell count,[4],69%
same,cell count,[5],77%
same,cell count,[6],68.2%
same,cell count,[7],57.2%
same,cell count,[8],78.2%
same,cell count,[9],70.2%
same,cell count,[10],62.8%
"Cn1cnc2c(F)c(Nc3ccc(Br)cc3Cl)c(C(=O)NOCCO)cc21 [selumetinib] + COc1ccc(Cl)c(Nc2nc3ccccc3nc2NS(=O)(=O)c2cccc(NC(=O)C(C)(C)N)c2)c1 [XL147] (first compound 0.075 µM, partner dose 4 µM)",cell count,[1],52%
same,cell count,[2],54.2%
same,cell count,[3],58.5%
same,cell count,[4],53.5%
same,cell count,[5],77.9%
same,cell count,[6],61.4%
same,cell count,[7],57.3%
same,cell count,[8],82.6%
same,cell count,[9],67.8%
same,cell count,[10],49.8%
"Cn1cnc2c(F)c(Nc3ccc(Br)cc3Cl)c(C(=O)NOCCO)cc21 [selumetinib] + CNC(=O)c1cc(Oc2ccc(NC(=O)Nc3ccc(Cl)c(C(F)(F)F)c3)cc2)ccn1 [sorafenib] (first compound 0.075 µM, partner dose 2 µM)",cell count,[1],51.9%
same,cell count,[2],22%
same,cell count,[3],64.4%
same,cell count,[4],79.4%
same,cell count,[5],87.9%
same,cell count,[6],54.2%
same,cell count,[7],71%
same,cell count,[8],72.2%
same,cell count,[9],73.1%
same,cell count,[10],60%
"Cn1cnc2c(F)c(Nc3ccc(Br)cc3Cl)c(C(=O)NOCCO)cc21 [selumetinib] + C=C(c1ccc(C(=O)O)cc1)c1cc2c(cc1C)C(C)(C)CCC2(C)C [Bexarotene] (first compound 0.075 µM, partner dose 10 µM)",cell count,[1],76.4%
same,cell count,[2],53.6%
same,cell count,[3],56.1%
same,cell count,[4],78.6%
same,cell count,[5],98.1%
same,cell count,[6],62.2%
same,cell count,[7],79.6%
same,cell count,[8],82.8%
same,cell count,[9],74.3%
same,cell count,[10],53.9%
"COc1cc([C@@H]2c3cc4c(cc3[C@@H](O[C@@H]3O[C@@H]5CO[C@@H](C)O[C@H]5[C@H](O)[C@H]3O)[C@H]3COC(=O)[C@H]23)OCO4)cc(OC)c1O [etoposide] + CC(C)(C)c1cnc(CSc2cnc(NC(=O)C3CCNCC3)s2)o1 [SNS-032] (first compound 0.1 µM, partner dose 0.05 µM)",cell count,[1],58.7%
same,cell count,[2],45.7%
same,cell count,[3],102%
same,cell count,[4],82.4%
same,cell count,[5],106%
same,cell count,[6],62.5%
same,cell count,[7],70%
same,cell count,[8],85.6%
same,cell count,[9],66.3%
same,cell count,[10],124%
"COc1cc([C@@H]2c3cc4c(cc3[C@@H](O[C@@H]3O[C@@H]5CO[C@@H](C)O[C@H]5[C@H](O)[C@H]3O)[C@H]3COC(=O)[C@H]23)OCO4)cc(OC)c1O [etoposide] + Cn1cncc1[C@@](N)(c1ccc(Cl)cc1)c1ccc2c(c1)c(-c1cccc(Cl)c1)cc(=O)n2C [tipifarnib] (first compound 0.1 µM, partner dose 0.05 µM)",cell count,[1],73.9%
same,cell count,[2],72.2%
same,cell count,[3],83.2%
same,cell count,[4],87.1%
same,cell count,[5],87.5%
same,cell count,[6],70.8%
same,cell count,[7],99%
same,cell count,[8],55.3%
same,cell count,[9],82.7%
same,cell count,[10],87.3%
"Cn1cnc2c(F)c(Nc3ccc(Br)cc3Cl)c(C(=O)NOCCO)cc21 [selumetinib] + CCCS(=O)(=O)Nc1ccc(F)c(C(=O)c2c[nH]c3ncc(Cl)cc23)c1F [PLX4720] (first compound 0.075 µM, partner dose 0.4 µM)",cell count,[1],35.5%
same,cell count,[2],79.2%
same,cell count,[3],80%
same,cell count,[4],93%
same,cell count,[5],102%
same,cell count,[6],61.3%
same,cell count,[7],80.5%
same,cell count,[8],67.1%
same,cell count,[9],74.1%
same,cell count,[10],47.4%
"CCN(CC)CCNC(=O)c1c(C)[nH]c(/C=C2\C(=O)Nc3ccc(F)cc32)c1C [sunitinib] + Cc1cc(Nc2cc(N3CCN(C)CC3)nc(/C=C/c3ccccc3)n2)n[nH]1 [ENMD2076] (first compound 2 µM, partner dose 0.2 µM)",cell count,[1],68.3%
same,cell count,[2],56%
same,cell count,[3],65.3%
same,cell count,[4],61.6%
same,cell count,[5],102%
same,cell count,[6],42.5%
same,cell count,[7],56.7%
same,cell count,[8],89.2%
same,cell count,[9],64.2%
same,cell count,[10],61.8%
"C[C@]1(O)C[C@@H](c2nc(-c3ccc4ccc(-c5ccccc5)nc4c3)c3c(N)nccn32)C1 + Clc1ccc(Nc2nnc(Cc3ccncc3)c3ccccc23)cc1 [vatalanib] (first compound 2 µM, partner dose 10 µM)",cell count,[1],63.5%
same,cell count,[2],66.7%
same,cell count,[3],85.1%
same,cell count,[4],39.3%
same,cell count,[5],69.8%
same,cell count,[6],60.9%
same,cell count,[7],86.6%
same,cell count,[8],76.4%
same,cell count,[9],54.2%
same,cell count,[10],49.6%
"CCN(CC)CCNC(=O)c1c(C)[nH]c(/C=C2\C(=O)Nc3ccc(F)cc32)c1C [sunitinib] + CNC(=O)c1cc(Oc2ccc(NC(=O)Nc3ccc(Cl)c(C(F)(F)F)c3)cc2)ccn1 [sorafenib] (first compound 2 µM, partner dose 2 µM)",cell count,[1],66.3%
same,cell count,[2],24.8%
same,cell count,[3],65%
same,cell count,[4],64.9%
same,cell count,[5],80.8%
same,cell count,[6],41.7%
same,cell count,[7],73.6%
same,cell count,[8],129%
same,cell count,[9],57.8%
same,cell count,[10],57.7%
"COc1cc([C@@H]2c3cc4c(cc3[C@@H](O[C@@H]3O[C@@H]5CO[C@@H](C)O[C@H]5[C@H](O)[C@H]3O)[C@H]3COC(=O)[C@H]23)OCO4)cc(OC)c1O [etoposide] + COc1cc2c(Oc3ccc4[nH]c(C)cc4c3F)ncnc2cc1OCCCN1CCCC1 [cediranib] (first compound 0.1 µM, partner dose 2 µM)",cell count,[1],78.2%
same,cell count,[2],63.1%
same,cell count,[3],97.3%
same,cell count,[4],67.3%
same,cell count,[5],94.3%
same,cell count,[6],66.6%
same,cell count,[7],73.7%
same,cell count,[8],69.4%
same,cell count,[9],86.7%
same,cell count,[10],83.5%
"COc1cc([C@@H]2c3cc4c(cc3[C@@H](O[C@@H]3O[C@@H]5CO[C@@H](C)O[C@H]5[C@H](O)[C@H]3O)[C@H]3COC(=O)[C@H]23)OCO4)cc(OC)c1O [etoposide] + NC(=O)Nc1cc(-c2cccc(F)c2)sc1C(=O)N[C@H]1CCCNC1 [AZD7762] (first compound 0.1 µM, partner dose 0.1 µM)",cell count,[1],41%
same,cell count,[2],61.5%
same,cell count,[3],65.7%
same,cell count,[4],74.7%
same,cell count,[5],99.6%
same,cell count,[6],45%
same,cell count,[7],56.1%
same,cell count,[8],50.3%
same,cell count,[9],72.9%
same,cell count,[10],47%
"COc1cc([C@@H]2c3cc4c(cc3[C@@H](O[C@@H]3O[C@@H]5CO[C@@H](C)O[C@H]5[C@H](O)[C@H]3O)[C@H]3COC(=O)[C@H]23)OCO4)cc(OC)c1O [etoposide] + CN(C)S(=O)(=O)c1ccc2c(c1)/C(=C/c1cc3c([nH]1)CCCC3)C(=O)N2 [SU6656] (first compound 0.1 µM, partner dose 2 µM)",cell count,[1],59.1%
same,cell count,[2],67.1%
same,cell count,[3],99.1%
same,cell count,[4],68.3%
same,cell count,[5],95.1%
same,cell count,[6],67.9%
same,cell count,[7],55%
same,cell count,[8],61.5%
same,cell count,[9],73.2%
same,cell count,[10],76%
"COc1cc([C@@H]2c3cc4c(cc3[C@@H](O[C@@H]3O[C@@H]5CO[C@@H](C)O[C@H]5[C@H](O)[C@H]3O)[C@H]3COC(=O)[C@H]23)OCO4)cc(OC)c1O [etoposide] + Cc1ccc(NC(=O)c2cccc(N(C)C)c2)cc1NC(=O)c1ccc(O)cc1 [ZM336372] (first compound 0.1 µM, partner dose 10 µM)",cell count,[1],67.3%
same,cell count,[2],72.5%
same,cell count,[3],71.2%
same,cell count,[4],81.1%
same,cell count,[5],95.4%
same,cell count,[6],73.9%
same,cell count,[7],87.3%
same,cell count,[8],80%
same,cell count,[9],88.7%
same,cell count,[10],94.3%
"COc1cc([C@@H]2c3cc4c(cc3[C@@H](O[C@@H]3O[C@@H]5CO[C@@H](C)O[C@H]5[C@H](O)[C@H]3O)[C@H]3COC(=O)[C@H]23)OCO4)cc(OC)c1O [etoposide] + CCCCCCCCCCCCCCCCCCOP(=O)([O-])OC1CC[N+](C)(C)CC1 [Perifosine] (first compound 0.1 µM, partner dose 2 µM)",cell count,[1],80.4%
same,cell count,[2],68.5%
same,cell count,[3],85%
same,cell count,[4],96.2%
same,cell count,[5],92.3%
same,cell count,[6],62.3%
same,cell count,[7],82.5%
same,cell count,[8],72.6%
same,cell count,[9],105%
same,cell count,[10],94.5%

# From the supplement of paper PMC4604168 (melanoma cell lines)
